Measurements reported in PubChem BioAssay AID1347120 (National Center for Advancing Translational Sciences (NCATS), 2019).
Screen size: about 390,000 compounds; about 930 (0.24%) were called active. The shares of active, inactive and inconclusive entries below differ from those in the screen. Calls come from the whole dose curve; as a rule, active = well fitted activation curve with a large enough effect; inconclusive = small, poorly fitted or top-dose-only effect; inactive = no such curve, though single readings can be large or run the other way. A potency beside an inconclusive call is a rough fit, not a confirmed value. Some compounds were tested as several samples or in several runs, with calls that do not always agree.

Assay: qHTS for Suppressors of FUS Proteinopathy: Primary screen using FUS-linked yeast assay; note: nearly all actives have a fitted effect of over 55% in size;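 for growth rescue (activation): plate controls were DMSO vehicle for no effect and reference control for full effect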
Conditions: S. cerevisiae FUS-expressing, OD600, 24 h; Potency: growth rescue; growth rescue (activation): at 76.6 µM (top of the series)
Method in brief: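 Galactose (2%) drives FUS expression in yeast precultured in raffinose; seeding density OD 0.005. Test compounds incubated 24hr at 30C and 99% humidity before absorbance at 600 nm was measured.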
Potency is the fitted concentration of half-maximal effect; tags give direction and shape of the fitted curve.

Structure (SMILES)	Potency	growth rescue (activation)
COCOCCn1cc(CN2CCS(=O)(=O)N(Cc3ccc(-c4ccc(F)cc4)cc3)C(C(C)C)C2=O)nn1 (stereo unspecified)	inconclusive: 25.1 µM [activator, partial curve, poor fit]	–
CCc1nn(CCCC(=O)NCc2ccc(OC(C)C)cc2)c(=O)c2cc3occc3n12	active: 31.6 µM	–
Cc1ccccc1C(=O)N1CCC(C(=O)Nc2ccc(S(=O)(=O)N3C(C)CCCC3C)cc2)CC1 (stereo unspecified)	inconclusive: 25.1 µM [activator, partial curve, poor fit]	–
O=C(NCc1ccccc1Cl)c1ccc(CS(=O)(=O)c2ccc(Br)cc2)o1	inconclusive: 22.4 µM [activator, partial curve, poor fit]	–
CCCCCC(=O)Nc1cccc(C2=NOC3(C2)C[C@H](C(N)=O)N(C(=O)CCCCC)C3)c1 (stereo partly specified)	inconclusive: 10 µM [activator, partial curve]	–
CCC1CCCCN1C(=O)c1c[nH]c2ccc(S(=O)(=O)N(C)c3ccc(Cl)cc3)cc2c1=O (stereo unspecified)	inconclusive: 31.6 µM [activator, single point]	–
O=C(c1cc2cc(Br)ccc2[nH]1)N1CCc2ccccc21	–	inactive: 5.96%
CCOC(=O)c1[nH]c(C)c(C(=O)N2CCN(c3ccc(F)cc3)CC2)c1C	inconclusive: 50.1 µM [activator, single point]	–
CCN(CC)C(=O)c1ccc2c(c1)N(Cc1ccc(C(F)(F)F)cc1)C(=O)c1ccccc1S2	inconclusive: 25.1 µM [activator, partial curve, poor fit]	–
O=c1ccc(-c2ccccc2)nn1Cc1ccc(Cl)cc1	–	inactive: 12.2%
COC(=O)c1ccc(C(=O)OC)c(NC(=O)CN(c2ccccc2)S(=O)(=O)N(C)C)c1	inconclusive: 15.8 µM [activator, partial curve, poor fit]	–
Cc1ccc(C(=O)Nc2ccc3c(c2)nc2n3CCSC2)cc1	–	inactive: 30.3%
Cc1cccc(NC(=S)N2CCN(S(=O)(=O)c3cccc(F)c3)CC2)c1	inconclusive: 50.1 µM [activator, single point]	–
CC(C)C[C@@H](COCc1ccc(C(F)(F)F)cc1)N1CCN(C(=O)c2ccc(C(F)(F)F)cc2)CCC1=O	inconclusive: 35.5 µM [activator, single point]	–
Cc1ccc(S(=O)(=O)N2CCN(C3CC(=O)N(c4ccc(F)cc4)C3=O)CC2)cc1C (stereo unspecified)	inconclusive: 22.4 µM [activator, partial curve, poor fit]	–
COc1ccc(C(=O)NCCn2cc(SCc3c(F)cccc3Cl)c3ccccc32)cc1	inconclusive: 28.2 µM [activator, single point]	–
